First the molecules themselves.
B1: LINE1-full (parent)
chain: UACGUAGGUGGUUUUCCCCUGAUAGUGCUAAGGGGGCCUGGAAGUUUGGACUGGGCAGAGCUCAACACAGCGUGGCAAAGUGGCUGUGGCUAGACUGCCUCUCUGGAUUCCUCGUCACUCAGCAGGGCAUCUCUGAGAGAAAUGCC

The source gives no read counts; variants with many changes may rest on few reads.

The variants in this series derive from B1. Nature of the series: self-cleavage, relative activity (ratio to wild type); higher = more cleavage; in vitro, sequencing; the parent is a self-cleaving ribozyme.
In the case of U85C U96C A117G, the self-cleavage is 0.
Under U5C G41U C66A U104G stands 0.07.
As to A6G U13G G40A U73C, the self-cleavage turned out to be 1.8.
Turning to U9C U52C A124G A136G, the self-cleavage worked out at 1.93.
On to A22G U47A A57U G114A U119G U134C, for which the self-cleavage worked out at 0.08.
Consider U73A A92C U108C, for which the self-cleavage came to 0.12.
For U62C A78U A138G, the self-cleavage came to 0.02.
Take U15C A30G U104C: the self-cleavage is 0.51.
With U23A A42U A94G A136C, the self-cleavage turned out to be 0.11.
With A57G A59G A64U, the self-cleavage was 0.1.
Regarding A6U U13C G53A, the self-cleavage turned out to be 0.8.
For U13A U20C A43U the value was 1.34.
For U47A U62C A69U U85C the value was 0; for U9A A59G A142G, 0.
For A78G C113U U130C the value was 1.42.
Consider A22G A69G A107U, for which the self-cleavage came out at 0.16.
With U20C U52A G86A, the self-cleavage was 0.08.
Turning to U12C U20C A57U U73C A117U A124G, the self-cleavage is 0.
For the variant U45A U115C U143C, the self-cleavage was determined as 0.87.
Under A77G U112C A138G stands 2.37; under U73C C103U U104C, 1.94; under A24G G34A A50G C63U, 0.47.
Turning to U15A U112C A124G, the self-cleavage is 0.25.
Take U20G G33A G49U: the self-cleavage came to 0.94.
On to U47C U52A C98G A124G, for which the self-cleavage amounted to 0.34.
As to A92U U100C C118U, the self-cleavage was found to be 1.09.
For A30G U46C U143C the value was 0.88.
With U62A U108C A136G, the self-cleavage amounted to 0.44.
Consider U26C A57G A78G U102A, for which the self-cleavage was 1.18.
On to U13C C68U U81A U134C A141G, for which the self-cleavage amounted to 0.18.
Under G21A U29C A30G stands 0.17.
For the variant U52A A57U U87A, the self-cleavage turned out to be 0.
As for A6G U62C A78G U108C, the self-cleavage amounted to 0.
For C38U A69G U81A the value was 0.11; for U20C U23C A107G A124G, 0; for U15A U96C G97A, 0.09.
G35A A77U U104A U132C: the self-cleavage worked out at 0.73.
For U20A U47C U115C the value was 2.17; for U29G G33U G48A A69U U100C A140G, 0.1; for U29A C37U U39C A43G G86A C146U, 0.05.
For U26C U85A U132C the value was 0.13.
Take C3U U109C U143C: the self-cleavage amounted to 1.41.
With U81C U130C U132C, the self-cleavage was 0.
A2U U12C A78G C116U A142G: the self-cleavage was 1.53.
For U9C U13A A78G, the self-cleavage stood at 0.71.
With C28G A43G A50G U104C, the self-cleavage came to 0.
Regarding U52C U87A U91A A117G, the self-cleavage stood at 0.
With U20C G75U A138G, the self-cleavage is 0.62.
For U45A U81A U100C the value was 2.8.
As to U29A U45C A69U, the self-cleavage was determined as 0.19.
For the variant U15A A69U A124G, the self-cleavage was 0.17.
On to U9G U73A U112C, for which the self-cleavage amounted to 0.3.
As to U14G A42G A94G, the self-cleavage was found to be 0.
Turning to U39A A64U G139A, the self-cleavage came to 0.36.
In the case of U87C A124G A142G, the self-cleavage is 0.07.
For A24C C128U U132C, the self-cleavage stood at 1.5.
As to U52A A136G A138G U143C, the self-cleavage amounted to 1.95.
A50G A69U C99G U104A: the self-cleavage was 0.09.
As for U15C U26C U81C A140U, the self-cleavage was determined as 0.8.
As for U12C U46A A79U, the self-cleavage is 1.82.
As to G40A U62C U81A A94U, the self-cleavage was 0.02.
Turning to U20C A59G A77G A136G, the self-cleavage came to 0.
With U15A U26C A69G A117U, the self-cleavage was 0.
For the variant U45C U62C C71A U132A, the self-cleavage was found to be 0.03.
As to U15A A42U U45A, the self-cleavage turned out to be 0.54.
For the variant A6G G33C U87C U100A, the self-cleavage was found to be 0.18.
Regarding U85C U102C U134C, the self-cleavage amounted to 0.
With U46C A67U G93U G135A, the self-cleavage was found to be 0.05.
On to C38U A57G A64G U104A, for which the self-cleavage is 0.09.
Turning to U108C C110U A117G U143C, the self-cleavage came out at 2.47.
Under A2U A31U U73C stands 0.47.
For A117G G126A A140U the value was 1.62; for U15C G35A A69G A92G A136U A142C, 0.
Consider U13A U14A G88A, for which the self-cleavage worked out at 0.05.
Turning to A77U A79U A124G, the self-cleavage turned out to be 0.84.
Regarding U102C U108C A138G, the self-cleavage came out at 1.91.
For the variant U39C C90A A121G, the self-cleavage stood at 0.03.
Take U62C U100C U102C A138G: the self-cleavage was found to be 0.13.
Take A22G U47C G135A: the self-cleavage is 0.99.
For A6U U12C A57G the value was 0.98; for U1A U104A U119C A138G, 1.3; for U14C U52A U119C A136G, 1.02.
Under A57G A124G A136U A142G stands 1.46; under G4C U14C A69G, 0.51.
U12G A50G U96A: the self-cleavage was 0.
Under U52A U115G A129G stands 2.01; under U13C A24U A64U, 0.7.
Consider U20A A77U A124G, for which the self-cleavage is 1.13.
Take C16U A67G A78G U102A: the self-cleavage turned out to be 0.12.
With U13C A57G A107G, the self-cleavage is 0.71.
For U5C A30G U108C A141G the value was 1.41; for U5A U9A A142G, 1.09; for U13A U39C G55U U102C, 0.1.
Take A43G U130C U143C: the self-cleavage is 1.36.
Under U46A U52C A107C A121G stands 1.84.
As to U12C C17U A24G U39C G122A, the self-cleavage is 0.8.
For the variant A67U U85C C90U U115A, the self-cleavage came to 0.04.
Regarding A57G A65G A77U A138G, the self-cleavage turned out to be 0.07.
Regarding A24G U47C A78G U96C U115A, the self-cleavage is 1.31.
For U23A A77U U112A, the self-cleavage came out at 1.13.
Under A30G U73A A117U stands 1.43; under A43G U115C A124G U143C, 0; under U45A A64U U91C, 0.03.
For U14A C17U U26C U47A U108C the value was 0.55; for U26C G70A U119A A141G, 0.18; for C3U U29C U112C U130C A136G, 1.84.
Consider U13C A24U U115C, for which the self-cleavage stood at 1.53.
With U9A U15C C56U U108C A136G, the self-cleavage stood at 0.84.
As for U52C A78G U81A G114A G135A, the self-cleavage stood at 0.33.
Regarding G36A U102C A121U, the self-cleavage was 1.35.
Turning to A77G G83C U108C, the self-cleavage stood at 2.66.
As to U9A A64G A107U, the self-cleavage turned out to be 0.22.
For G33C A57G A136G the value was 0.31; for A22U G127A A138G, 1.31; for U73G A94G G97A G126U, 0.
For G32A A78G U119C the value was 1.33; for U15C G70U A129G, 0.13; for U47C G53U A142G, 1.41.
On to U26C G125U A138G, for which the self-cleavage is 1.05.
On to U5C U26G U45A U87C A124C A138U, for which the self-cleavage came out at 2.3.
Consider U12G U26C U39A U47C A92G G105A A129G A142G, for which the self-cleavage worked out at 0.73.
With A69G U108C U112A, the self-cleavage came to 0.66.
For A59G A77U G93U A129U A138G A140G, the self-cleavage stood at 0.09.
As to A42G A57U C71A U112C, the self-cleavage worked out at 0.05.
As for U81G U102C U115A A129U, the self-cleavage amounted to 1.65.
Take U115C U130C U132C: the self-cleavage was determined as 0.92.
For the variant G35A U39C U91C, the self-cleavage was determined as 0.35.
In the case of G34A U109A A140U, the self-cleavage was determined as 1.36.
As to C18A A59G U87C, the self-cleavage is 0.17.
Consider U12C C38A U91A U102C, for which the self-cleavage was determined as 0.93.
Consider U14C U20C C61U, for which the self-cleavage was found to be 0.16.
Take U26C A79U A140G: the self-cleavage stood at 1.47.
On to A67G C113U A129G, for which the self-cleavage is 0.21.
Take U46C A57G A92G A140U: the self-cleavage came out at 0.
For the variant U1C G8A U46A, the self-cleavage was found to be 0.98.
For G60A A77G G82U U85C the value was 0.04.
Regarding U29C U52A U62C U108C A117U A138G, the self-cleavage turned out to be 0.
For U20A U29C U62C A77G the value was 0; for A2U U52C U102C U132A, 0.75.
Turning to A77U A79G A107G, the self-cleavage turned out to be 1.44.
For U29C U104C U119A U132C, the self-cleavage came to 0.
Take G48U U108C A124G: the self-cleavage was determined as 1.15.
As for C37G U119C A121G, the self-cleavage amounted to 1.84.
A107G C116U U143A: the self-cleavage turned out to be 1.21.
Take U62C A117G U132C: the self-cleavage stood at 0.
Under A2U A22G A94U stands 0.53; under U26C U39C U100C C123U A124G, 1.45.
Turning to U23C U96A A140G, the self-cleavage is 0.13.
Consider A42G U130C U132C, for which the self-cleavage was 1.38.
With U15C G54U U115G, the self-cleavage is 0.58.
For the variant A67U A78G U112C, the self-cleavage worked out at 0.
For U15A G35A A140C, the self-cleavage was found to be 0.65.
Consider C61U U108C C120U, for which the self-cleavage is 0.02.
On to A30U U46C A77G A142G, for which the self-cleavage came out at 0.24.
As for U20C U47A A57G, the self-cleavage turned out to be 0.5.
For C71A A77G A124U the value was 0.35.
With U15A G74A U85A A140G, the self-cleavage was 0.06.
A22G C38U A77G U143C: the self-cleavage came to 1.84.
For A79G U91C U108C the value was 0.38.
As for U26C U62C U87A U102A A117U, the self-cleavage stood at 0.
For the variant G33A A64G C98U U109C, the self-cleavage was 0.07.
With U45C A65G A124U, the self-cleavage worked out at 0.
In the case of A6U U47A G53A A57G C98U A107G U130C, the self-cleavage amounted to 0.05.
U47C U85A A121G A140G: the self-cleavage is 0.38.
Take U81G U85A C113A: the self-cleavage was determined as 0.14.
On to U15C A117U U134A, for which the self-cleavage was 0.96.
Under C37U U47A A65G stands 0.01.

The record behind these values is the RNAGym collection of RNA variant scans (doi:10.7554/elife.90254).
